In the supplement of paper PMC4967469:
A lower IC50 marks a more sensitive line; where the fit passes the top or lowest dose, that dose stands as a limit. For AUC the same curve is integrated over the 256-fold range of doses and scaled to a fraction: 1 means no effect, lower means more sensitive. For part of these data: An inferred top dose is not printed in the source and was worked back from the curve model. For part of these data: An entry number marks a drug with two screens in the source, which often give different values.

Assays:
Experiment in all cases: Viability of human cancer cell lines after 72 h of drug (GDSC screen)
[1] = compound: COc1cc(O)c2c(c1)/C=C/C[C@H](O)[C@H](O)C(=O)/C=C\C[C@H](C)OC2=O [(5Z)-7-Oxozeaenol]; details: top dose 10 µM; top dose inferred
Description: (§1)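 Human cancer cell lines in 384-well plates, medium with 10% serum, drug for 72 h over a 256-fold dose range (nine 2-fold or five 4-fold steps up to the top dose). Adherent lines were fixed and stained with the nucleic acid dye Syto60, suspension lines read with resazurin; signal relative to control wells, capped at 0 and 100%. One two-parameter sigmoid per drug and line, fitted in a mixed model over all curves with the slope shared within a line.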

[2] = compound: Cc1ccc(-c2c(C(=O)CCl)n(CCCO)c3ncnc(N)c23)cc1 [CMK]; details: top dose 4 µM; top dose inferred
Description: as §1

[3] = compound: C[C@]1(c2nc3c(C(N)=O)cccc3[nH]2)CCCN1 [ABT-888]; details: top dose 5 µM; top dose inferred
Description: as §1

[4] = compound: Cc1cnc(-c2cnc(NCCNc3ccc(C#N)cn3)nc2-c2ccc(Cl)cc2Cl)[nH]1 [CHIR-99021]
Description: as §1

[5] = compound: O=c1cc(-c2cccc3c2Sc2ccccc2S3)oc(N2CCOCC2)c1 [KU-55933]; details: top dose 10 µM
Description: as §1

[6] = compound: COc1cc(N2CCC(O)CC2)ccc1Nc1cc(Nc2ccccc2S(=O)(=O)C(C)C)c2cc[nH]c2n1 [MPS-1-IN-1]; details: top dose 20 µM; top dose inferred
Description: as §1

[7] = compound: Nc1ccn([C@@H]2O[C@H](CO)[C@@H](O)[C@@H]2O)c(=O)n1 [Cytarabine]; details: top dose 2 µM
Description: as §1

[8] = compound: CCn1c(-c2nonc2N)nc2cnc(Oc3cccc(NC(=O)c4ccc(OCCN5CCOCC5)cc4)c3)cc21 [GSK269962A]; details: top dose inferred
Description: as §1

[9] = compound: C/C=C(/C)C(=O)O[C@H]1C(C)=C2[C@H]([C@@H]1OC(=O)CCCCCCC)[C@@](C)(OC(C)=O)C[C@H](OC(=O)CCC)[C@@]1(O)[C@H]2OC(=O)[C@@]1(C)O [Thapsigargin]; details: top dose 0.512 µM; top dose inferred
Description: as §1

[10] = compound: Cc1ccc(F)c(NC(=O)Nc2ccc(-c3cccc4[nH]nc(N)c34)cc2)c1 [ABT-869]; details: top dose 1.024 µM; top dose inferred
Description: as §1

[11] = compound: COc1cc2ncnc(-n3nc(-c4ccccn4)nc3N)c2cc1OC [CP466722]; details: top dose 16 µM; top dose inferred
Description: as §1

[12] = compound: COc1nc(C)cnc1NS(=O)(=O)c1cccnc1-c1ccc(-c2nnco2)cc1 [Zibotentan]; details: top dose 20 µM; top dose inferred
Description: as §1

[13] = compound: C=CC(=O)Nc1cc(-n2c(=O)ccc3cnc4ccc(-c5cn[nH]c5)cc4c32)ccc1C [QL-X-138]; details: top dose 10.24 µM; top dose inferred
Description: as §1

[14] = top dose 2.56 µM, screen: GDSC drug entry 154
[15] = top dose 10 µM, screen: GDSC drug entry 1241, top dose inferred
[16] = top dose 2.5 µM, screen: GDSC drug entry 127
[17] = top dose 5 µM, screen: GDSC drug entry 1192

EVSA-T (breast, adherent)
AUC [1]: 0.747
IC50 [1]: 2.81 µM
AUC [2]: 0.831
IC50 [2]: 2.06 µM
AUC [3]: 0.991
IC50 [3]: > 5 µM
AUC [4, 14]: 0.991
IC50 [4, 14]: > 2.56 µM
AUC [4, 15]: 0.987
IC50 [4, 15]: > 10 µM
AUC [5]: 0.903
IC50 [5]: 9.88 µM
AUC [6]: 0.933
IC50 [6]: > 20 µM
AUC [7]: 0.753
IC50 [7]: 0.586 µM
AUC [8, 16]: 0.989
IC50 [8, 16]: > 2.5 µM
AUC [8, 17]: 0.93
IC50 [8, 17]: > 5 µM
AUC [9]: 0.665
IC50 [9]: 0.0851 µM
AUC [10]: 0.991
IC50 [10]: > 1.02 µM
AUC [11]: 0.927
IC50 [11]: > 16 µM
AUC [12]: 0.991
IC50 [12]: > 20 µM
AUC [13]: 0.818
IC50 [13]: 4.76 µM

EW-3 (Ewing sarcoma, adherent)
AUC [1]: 0.834
IC50 [1]: 7.87 µM
AUC [2]: 0.962
IC50 [2]: > 4 µM
AUC [3]: 0.924
IC50 [3]: > 5 µM
AUC [4, 14]: 0.982
IC50 [4, 14]: > 2.56 µM
AUC [4, 15]: 0.982
IC50 [4, 15]: > 10 µM
AUC [5]: 0.983
IC50 [5]: > 10 µM
AUC [6]: 0.77
IC50 [6]: 8.71 µM
AUC [7]: 0.659
IC50 [7]: 0.37 µM
AUC [8, 16]: 0.974
IC50 [8, 16]: > 2.5 µM
AUC [8, 17]: 0.963
IC50 [8, 17]: > 5 µM
AUC [9]: 0.632
IC50 [9]: 0.0785 µM
AUC [10]: 0.983
IC50 [10]: > 1.02 µM
AUC [11]: 0.732
IC50 [11]: 5.08 µM
AUC [12]: 0.975
IC50 [12]: > 20 µM
AUC [13]: 0.639
IC50 [13]: 1.65 µM

EW-13 (Ewing sarcoma, suspension)
AUC [1]: 0.885
IC50 [1]: > 10 µM
AUC [2]: 0.977
IC50 [2]: > 4 µM
AUC [3]: 0.97
IC50 [3]: > 5 µM
AUC [4, 14]: 0.986
IC50 [4, 14]: > 2.56 µM
AUC [4, 15]: 0.984
IC50 [4, 15]: > 10 µM
AUC [5]: 0.985
IC50 [5]: > 10 µM
AUC [6]: 0.868
IC50 [6]: > 20 µM
AUC [7]: 0.985
IC50 [7]: > 2 µM
AUC [8, 16]: 0.981
IC50 [8, 16]: > 2.5 µM
AUC [8, 17]: 0.98
IC50 [8, 17]: > 5 µM
AUC [9]: 0.207
IC50 [9]: 0.00389 µM
AUC [10]: 0.986
IC50 [10]: > 1.02 µM
AUC [11]: 0.685
IC50 [11]: 3.5 µM
AUC [12]: 0.985
IC50 [12]: > 20 µM
AUC [13]: 0.554
IC50 [13]: 0.911 µM

EW-16 (Ewing sarcoma, adherent)
AUC [1]: 0.749
IC50 [1]: 3.37 µM
AUC [2]: 0.858
IC50 [2]: 3.52 µM
AUC [3]: 0.981
IC50 [3]: > 5 µM
AUC [4, 14]: 0.966
IC50 [4, 14]: > 2.56 µM
AUC [4, 15]: 0.956
IC50 [4, 15]: > 10 µM
AUC [5]: 0.95
IC50 [5]: > 10 µM
AUC [6]: 0.751
IC50 [6]: 6.87 µM
AUC [7]: 0.653
IC50 [7]: 0.34 µM
AUC [8, 16]: 0.978
IC50 [8, 16]: > 2.5 µM
AUC [8, 17]: 0.881
IC50 [8, 17]: > 5 µM
AUC [9]: 0.108
IC50 [9]: < 0.002 µM
AUC [10]: 0.983
IC50 [10]: > 1.02 µM
AUC [11]: 0.806
IC50 [11]: 8.57 µM
AUC [12]: 0.984
IC50 [12]: > 20 µM
AUC [13]: 0.582
IC50 [13]: 1.09 µM

EW-18 (Ewing sarcoma, suspension)
AUC [1]: 0.838
IC50 [1]: 7.42 µM
AUC [2]: 0.978
IC50 [2]: > 4 µM
AUC [3]: 0.972
IC50 [3]: > 5 µM
AUC [4, 14]: 0.985
IC50 [4, 14]: > 2.56 µM
AUC [4, 15]: 0.984
IC50 [4, 15]: > 10 µM
AUC [5]: 0.897
IC50 [5]: > 10 µM
AUC [6]: 0.606
IC50 [6]: 2.49 µM
AUC [7]: 0.929
IC50 [7]: > 2 µM
AUC [8, 16]: 0.903
IC50 [8, 16]: > 2.5 µM
AUC [8, 17]: 0.969
IC50 [8, 17]: > 5 µM
AUC [9]: 0.348
IC50 [9]: 0.0117 µM
AUC [10]: 0.962
IC50 [10]: > 1.02 µM
AUC [11]: 0.618
IC50 [11]: 2.16 µM
AUC [12]: 0.959
IC50 [12]: > 20 µM
AUC [13]: 0.483
IC50 [13]: 0.573 µM

EoL-1-cell (haematopoietic neoplasm, suspension)
AUC [1]: 0.024
IC50 [1]: < 0.0391 µM
AUC [2]: 0.959
IC50 [2]: > 4 µM
AUC [3]: 0.976
IC50 [3]: > 5 µM
AUC [4, 14]: 0.973
IC50 [4, 14]: > 2.56 µM
AUC [4, 15]: 0.959
IC50 [4, 15]: > 10 µM
AUC [5]: 0.934
IC50 [5]: > 10 µM
AUC [6]: 0.781
IC50 [6]: 7.31 µM
AUC [7]: 0.716
IC50 [7]: 0.469 µM
AUC [8, 16]: 0.962
IC50 [8, 16]: > 2.5 µM
AUC [8, 17]: 0.48
IC50 [8, 17]: 0.277 µM
AUC [9]: 0.376
IC50 [9]: 0.0152 µM
AUC [10]: 0.208
IC50 [10]: 0.0101 µM
AUC [11]: 0.592
IC50 [11]: 1.73 µM
AUC [12]: 0.988
IC50 [12]: > 20 µM
AUC [13]: 0.592
IC50 [13]: 1.11 µM

Farage (B-cell lymphoma, suspension)
AUC [1]: 0.848
IC50 [1]: 5.49 µM
AUC [2]: 0.768
IC50 [2]: 1.25 µM
AUC [3]: 0.99
IC50 [3]: > 5 µM
AUC [4, 14]: 0.993
IC50 [4, 14]: > 2.56 µM
AUC [4, 15]: 0.988
IC50 [4, 15]: > 10 µM
AUC [5]: 0.976
IC50 [5]: > 10 µM
AUC [6]: 0.912
IC50 [6]: 19.7 µM
AUC [7]: 0.98
IC50 [7]: > 2 µM
AUC [8, 16]: 0.977
IC50 [8, 16]: > 2.5 µM
AUC [8, 17]: 0.984
IC50 [8, 17]: > 5 µM
AUC [9]: 0.123
IC50 [9]: 0.00286 µM
AUC [10]: 0.993
IC50 [10]: > 1.02 µM
AUC [11]: 0.734
IC50 [11]: 3.98 µM
AUC [12]: 0.922
IC50 [12]: > 20 µM
AUC [13]: 0.444
IC50 [13]: 0.463 µM

GB-1 (glioma, adherent)
AUC [1]: 0.712
IC50 [1]: 2.8 µM
AUC [2]: 0.838
IC50 [2]: 3.41 µM
AUC [3]: 0.947
IC50 [3]: > 5 µM
AUC [4, 14]: 0.98
IC50 [4, 14]: > 2.56 µM
AUC [4, 15]: 0.979
IC50 [4, 15]: > 10 µM
AUC [5]: 0.746
IC50 [5]: 3.65 µM
AUC [6]: 0.799
IC50 [6]: 11.7 µM
AUC [7]: 0.901
IC50 [7]: > 2 µM
AUC [8, 16]: 0.978
IC50 [8, 16]: > 2.5 µM
AUC [8, 17]: 0.847
IC50 [8, 17]: 4.71 µM
AUC [9]: 0.65
IC50 [9]: 0.0901 µM
AUC [10]: 0.983
IC50 [10]: > 1.02 µM
AUC [11]: 0.744
IC50 [11]: 5.75 µM
AUC [12]: 0.931
IC50 [12]: > 20 µM
AUC [13]: 0.792
IC50 [13]: 5.56 µM
